This note sets out measurements from PubChem BioAssay AID485344 (National Center for Advancing Translational Sciences (NCATS), 2010).

Hit rate of the full screen: of about 340,000 compounds, about 6,900 (2%) were called active. Rule as the data show it: active = inhibition above about 30%; inactive = below that, where a call was filed. This is a selection; strong and weak results do not stand in their true shares. Entries without a call were filed so in the source.

UniProt P14416, sequence (P14416 whole entry, looked up): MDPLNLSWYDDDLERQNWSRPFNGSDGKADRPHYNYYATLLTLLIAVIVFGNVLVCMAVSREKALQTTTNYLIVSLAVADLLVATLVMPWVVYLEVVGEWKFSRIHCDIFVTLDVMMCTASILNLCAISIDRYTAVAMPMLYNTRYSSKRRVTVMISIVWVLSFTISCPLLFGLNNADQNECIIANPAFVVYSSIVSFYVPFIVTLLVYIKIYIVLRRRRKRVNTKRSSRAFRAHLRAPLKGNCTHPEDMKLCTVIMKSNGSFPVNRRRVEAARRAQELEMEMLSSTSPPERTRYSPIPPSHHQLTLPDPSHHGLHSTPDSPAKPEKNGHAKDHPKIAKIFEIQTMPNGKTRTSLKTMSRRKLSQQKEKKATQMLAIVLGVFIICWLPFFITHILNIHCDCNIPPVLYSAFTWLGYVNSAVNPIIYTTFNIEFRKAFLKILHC

The test deals with D(2) dopamine receptor (Homo sapiens) (UniProt P14416). Kind of test: HTS Assay for Allosteric Antagonists of the Human D2 Dopamine Receptor: Primary Screen for Antagonists. Also: 0% is about no effect. As to conditions: HEK293 TREx D2 cells, calcium flux, dopamine EC80; at 10 µM; stronger effect = higher value. The procedure, abridged:
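Tetracycline-induced HEK293 TREx cells expressing D2 receptor forced-coupled to calcium signalling, loaded with no-wash calcium dye. Compounds added and calcium flux read 180 s, then dopamine added at EC80 and read a further 180 s.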
In general terms: Calcium assays in cells follow changes in intracellular calcium, usually with a dye or a luminescent sensor.
The term inhibition denotes the relative decrease from the control value, in per cent. Regarding `COCCNC(=O)CCCn1c(=O)[nH]c2ccsc2c1=O`, the inhibition is -12.7%.

On to `COc1ccc(NC(=O)Cn2c(=O)oc3cc(S(=O)(=O)N4CCCCC4C)ccc32)cc1` (centres undefined), for which the inhibition came out at 5.63%.

Take `O=C(c1ccccc1F)N1CCC(c2nc3c(nnn3Cc3cccc(F)c3)c(=O)[nH]2)CC1`: the inhibition was -3.79%.

As to `Cc1ccc(NC(=S)N(CCCN2CCC(C)CC2)Cc2ccco2)cc1`, the inhibition is active: 34.7%.

Consider `Cc1oc(-c2ccc(C(=O)NC(C)c3ccccc3)cc2)nc1CS(=O)(=O)c1ccccc1` (centres undefined), for which the inhibition was -12.8%.

On to `COC(=O)c1ccccc1NC(=O)CCCN1C(=O)C(c2ccccc2)Oc2cccnc21` (centres undefined), for which the inhibition is -10.4%.

For the molecule `COc1ccc(CCn2c(=O)[nH]c3cc(C(=O)N4CCN(c5ccccc5)CC4)ccc3c2=O)cc1OC`, the inhibition came out at 11.8%.

With `COCCNC(=O)CCCN1C(=O)CCn2nc(-c3cccn3C)cc21`, the inhibition was -5.89%.

Turning to `Cc1ccc(CCNC(=O)c2ccc(CS(=O)(=O)c3ccc(Cl)cc3)o2)cc1`, the inhibition was -10.7%.

As for `CCN1C(=O)C2(c3ccccc31)c1c(oc3ccc(C)cc3c1=O)C(=O)N2CCCOC(C)C` (centres undefined), the inhibition was -8.11%.

For the molecule `Cc1cc2ccccc2n1CCNC(=O)c1ccc(F)cc1`, the inhibition came to 3.51%.

On to `CC1=C(c2ccc(C)cc2)S(=O)(=O)N(Cc2ccc(C(=O)Nc3ccccc3C)cc2)C1=O`, for which the inhibition was found to be 11.8%.

As to `COc1ccccc1N1CCN(C(=O)CCc2c[nH]c3ccccc23)CC1`, the inhibition is active: 44.5%.

As for `COc1cc(OC)c(OC)cc1CCC(C)NCCC(c1ccccc1)c1ccccc1` (centres undefined), the inhibition was active: 49.2%.

In the case of `Nc1nonc1-c1nc2ccccc2n1Cc1c(Cl)cccc1Cl`, the inhibition was -4.58%.

In the case of `COc1ccc(N(CC(=O)NCCc2ccccc2)S(=O)(=O)c2ccc(OC)c(OC)c2)cc1`, the inhibition is 20.1%.

Regarding `O=C(C1CCCN(S(=O)(=O)c2cccc3nonc23)C1)N1CCN(c2ccccc2Cl)CC1` (centres undefined), the inhibition amounted to 14.4%.

Regarding `Cc1ccccc1NC(=O)c1c(C)oc2ccc(O)c(CN3CCC(C)CC3)c12`, the inhibition was 27%.

On to `CCCOc1ccc(C(=O)Nc2ccc3nn(-c4ccc(OC)c(Cl)c4)nc3c2)cc1`, for which the inhibition is -13.3%.

As to `COc1cccc2c1Oc1nc(-c3ccccc3)nc(SCC(=O)Nc3ccccc3)c1C2`, the inhibition is -23%.

For `CCOc1ccc(-c2nnc(SCC(=O)Nc3cc(F)ccc3F)o2)cc1`, the inhibition came to 14.5%.

As for `COCCCNC(=O)c1ccc(Cn2c(=O)c3ccccc3n(Cc3ccccc3C)c2=O)cc1`, the inhibition was -19.7%.

Turning to `CCOC(=O)Cn1c(=O)oc2cc(S(=O)(=O)N3CCN(c4ccccc4OC)CC3)ccc21`, the inhibition stood at 9.65%.

In the case of `CNC(=O)CSc1nnc(COc2ccc([N+](=O)[O-])cc2)n1C`, the inhibition is active: 75.9%.

Regarding `COc1ccc(CNC(=O)c2ccc(NC(=O)N3CCSc4ncccc43)cc2)cc1OC`, the inhibition stood at 2.7%.

On to `COc1ccc(OC)c(-c2noc(N3CCN(c4ccc(C(C)=O)cc4)CC3)n2)c1`, for which the inhibition is 15.2%.

`CCOC(=O)c1c(NC(=O)CCCOc2ccc(Cl)cc2)sc2c1CCC2`: the inhibition was -3.16%.

For `Cc1ccc(C(=O)NCCN2C3=NC[C@@H](Cc4ccccc4)N3C[C@H]2Cc2ccc(O)cc2)cc1Br`, the inhibition is active: 68.1%.

As to `COc1ccc(OC)c(NC(=O)Cn2ccn(-c3ccc(OC)c(OC)c3)c(=O)c2=O)c1`, the inhibition is 8.4%.

As for `CCc1ccc(NC(=O)Nc2ccccc2OCc2cc(=O)n3ccccc3n2)cc1`, the inhibition came out at 3.53%.

Turning to `CCOC(=O)c1cc(-c2ccc(OC)c(S(=O)(=O)NCc3ccccc3Cl)c2)on1`, the inhibition is -2.3%.

On to `O=C(Cn1cnc2ccccc2c1=O)N1CCN(Cc2ccc3c(c2)OCO3)CC1`, for which the inhibition was active: 55.2%.

As to `O=C(CN1C(=O)C2(SCC(=O)N2c2cccc(F)c2)c2ccccc21)NCCc1ccccc1` (centres undefined), the inhibition was -9.81%.

For the molecule `O=C(NCCc1csc(-c2cccnc2)n1)c1ccccc1`, the inhibition is -7.89%.

Consider `C/C=C(/C)C(=O)Nc1cccc(C2=NOC3(C2)C[C@@H](C(N)=O)N(C(=O)CC)C3)c1` (some centres undefined), for which the inhibition is active: 43.4%.

Turning to `Cc1ccccc1C(=O)OCc1cc(=O)n2nc(C3CCCCC3)sc2n1`, the inhibition came to 5.88%.

For `COc1cc(C(CCN2CCCC2)c2c(OC)cc(OC)c3ccc(=O)oc23)cc(OC)c1OC` (centres undefined), the inhibition is active: 33%.

Consider `Cc1nnc2c(N3CCN(c4ccc(F)cc4)CC3)nc3ccc(C(=O)c4ccccc4)cc3n12`, for which the inhibition is -2.64%.

Consider `COc1ccc(-c2nnn3c2nc(NCc2ccc(C)cc2)c2ccccc23)cc1`, for which the inhibition is -19.2%.

Regarding `Cc1cc(C)c(NC(=O)C(C)n2c(=O)cc(-c3ccccc3)c3c(C)nn(C)c32)c(C)c1` (centres undefined), the inhibition came out at 12.1%.

As to `O=C(COC(=O)C1(c2ccccc2)CC1)N1CCN(c2ccc(F)cc2)CC1`, the inhibition is active: 35.5%.

For `CC(=O)C1=C(c2ccc(F)cc2)N(C(C)=O)n2c(nnc2C2CCCCC2)S1`, the inhibition was determined as 25.1%.

Take `CCOc1ccc(C(=O)NCC(c2ccc(Cl)cc2)N2CCCCC2)cc1` (centres undefined): the inhibition worked out at 6.21%.

In the case of `Cc1c(N=c2scc(-c3ccccc3)n2C)c(=O)n(-c2ccccc2)n1C`, the inhibition is active: 75.5%.

With `COc1ccc(-c2onc(C)c2C)cc1S(=O)(=O)Nc1cccc(C#N)c1`, the inhibition came out at 4.03%.

Take `CN(C)CCN(Cc1ccco1)C(=O)c1cc2c(s1)-c1ccccc1OC2`: the inhibition was 12%.

On to `CCOC(=O)N1CCc2c(sc3c2c(=O)n(-c2ccc(F)cc2)c(=O)n3CC(=O)c2ccc(Cl)cc2)C1`, for which the inhibition was -10.8%.

`CCc1ccc(NS(=O)(=O)c2ccc(-c3cc(C)no3)cc2)cc1`: the inhibition is -7.38%.

Regarding `Cc1cccc(C(=O)NC2(C(F)(F)F)N=C(c3ccccc3)N(C3CCCCC3)C2=O)c1` (centres undefined), the inhibition amounted to 10.6%.

`CCOc1ccc(-c2cc(C(=O)NC(C)c3ccccc3)c3ccccc3n2)cc1` (centres undefined): the inhibition is -3.8%.

For `CN1C(C(=O)c2ccccc2)=C(NC(=O)c2ccc(F)cc2)c2ccccc2S1(=O)=O`, the inhibition is -23.4%.

On to `O=C(Nc1ccc(C(=O)N2CCN(c3ccccc3F)CC2)cc1)c1nsc2ccccc12`, for which the inhibition stood at 20.1%.

Turning to `O=C(Cn1ncc2c3ccccc3n(Cc3cccc(Cl)c3)c2c1=O)NCCCN1CCCCC1`, the inhibition came to 2.08%.

`CCOCCCNc1nc2c(S(=O)(=O)c3ccc(CC)cc3)nnn2c2ccc(Cl)cc12`: the inhibition is -8.76%.

For `Cc1ccc(C)c(N2CCN(S(=O)(=O)c3ccc(-c4cnc(C5CC5)o4)cc3)CC2)c1`, the inhibition is 7.45%.

For the molecule `Cc1ccc(CNC(=O)Cn2c(=O)cc(C)c3c(C)nn(-c4cccc(F)c4)c32)cc1`, the inhibition worked out at 10.9%.

As to `Cc1ccc(NC(=O)CSc2nc(-c3cccs3)nc3cc(=O)[nH]n23)cc1C`, the inhibition is -8.85%.

Turning to `CCOc1ccccc1CN1CCc2nc(N3CCN(C)CC3)ncc2C1`, the inhibition was -8.07%.

On to `O=C(NCCc1ccccc1)C1CCN(Cc2cc3ccccc3n2Cc2ccccc2)CC1`, for which the inhibition is -13.5%.
